Results reported in PubChem BioAssay AID1508649 (National Center for Advancing Translational Sciences (NCATS), 2021).
The whole screen tested about 43,000 compounds, of which about 830 (1.9%) were called active. The inconclusive results got no clear call from the source; some entries with a clear call stand among them for comparison. Rule for the calls: active = clear falling dose curves in both reporters; inconclusive = both reporters move, but less clearly or upward; inactive = either reporter flat; the % is the NLuc reporter signal. No potency is given beside an inconclusive call; the fits are too rough.
Potency is the fitted concentration of half-maximal effect; tags give direction and shape of the fitted curve.

Experiment: Cell-based coincidence reporter assay to measure PMP22 gene transcription in S16 Pmp22-F2sN cells - Primary screen
Settings: S16 Pmp22-F2sN Schwann cells (luciferase reporters placed in the Pmp22 gene), FLuc/NLuc coincidence luminescence, 24 h; measured here: NLuc reporter readout, at 57.5 µM (top of the series)
Summary of the method: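 Schwann cells carrying the coincidence reporter were exposed to library compounds for 24 h at 37C, then lysed and read for FLuc and, after quenching, NLuc luminescence on a CCD imager.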
In the case of `O=C(CCC1N=C2c3ccccc3N=C(SCc3cccc(F)c3)N2C1=O)NCCc1ccccc1` (stereo unspecified), the Potency is reported as inconclusive [phenotype inactive, single point].
With `Cc1cc(F)ccc1NC(=O)C1CCN(C(=O)c2cnn(-c3ccccc3)c2-n2cccc2)CC1` the Potency was inconclusive [phenotype inactive, partial curve, poor fit].
For `CCOC(=O)C1CCCN(c2c(C(=O)c3ccc(OCC)cc3)cnc3ccccc23)C1` (stereo unspecified), the Potency was “inactive”.
With `O=c1n(Cc2ccccc2)nc2n1-c1cc(Cl)ccc1OC2` the Potency was “inactive”.
With `Cc1c(Cl)cccc1NC(=O)CSc1nc(=O)[nH]c2c1CCC2` the Potency was inconclusive [phenotype inactive, single point].
With `CCn1cc2nc(SCc3cc(C)ccc3C)n(Cc3ccc(Cl)cc3)c(=O)c2n1` the Potency was inconclusive [phenotype inactive, single point].
In the case of `CC(C)c1ccc(C2CC(=O)N3CN(C4CCCCC4)CSC3=C2C#N)cc1` (stereo unspecified), the Potency is reported as inconclusive [phenotype inactive, single point].
For `CCOC(=O)CC(NC(=O)Cn1nnc(-c2ccc(Cl)cc2)n1)c1ccc(OC)cc1` (stereo unspecified), the Potency was inconclusive [phenotype inactive, single point].
With `Cc1cc(C)c2c(NC(=O)c3ccccc3Cl)c(C(=O)NCc3ccc(Cl)cc3)sc2n1` the Potency was inconclusive [phenotype inactive, single point].
In the case of `Cc1ccc(CN(Cc2cccn2-c2nnc(N3CCCC3=O)s2)C(=O)Nc2ccccc2Cl)cc1`, the Potency is reported as inconclusive [phenotype inactive, single point].
For `O=C(NC1CCCCC1)c1ccc(CSc2nc3cccnc3n2Cc2ccccc2)cc1`, the Potency was inconclusive [phenotype inactive, single point].
In the case of `CC(=O)Nc1cccc(NC(=O)CSc2nccn2Cc2ccccc2)c1`, the Potency is reported as inconclusive [phenotype inactive, single point].
In the case of `CC(C)Oc1ccc(C(=O)N(Cc2ccc(N(C)C)cc2)Cc2ccco2)cc1`, the Potency is reported as inconclusive [phenotype inactive, partial curve].
In the case of `Cc1ccc(OCC(=O)NCC(=O)OCc2cc(=O)n3nc(C(C)C)sc3n2)cc1`, the Potency is reported as inconclusive [phenotype inactive, full curve, poor fit].
For `CCOC(=O)c1oc2c(c1C)-c1nn(Cc3cccc(Cl)c3)cc1CC2`, the Potency was inconclusive [phenotype inactive, partial curve, poor fit].
In the case of `CCN(CC)S(=O)(=O)c1ccc2c(c1)N(CC(=O)Nc1c(C)cccc1C)C(=O)C1CCCN21` (stereo unspecified), the Potency is reported as “inactive”.
With `O=S(=O)(c1ccccc1)c1nc(-c2ccc(F)cc2)oc1NCc1ccccc1` the Potency was “inactive”.
In the case of `CCCNC(=O)c1cc2n(n1)CCCN(Cc1ccc(C)cc1)C2=O`, the Potency is reported as “inactive”.
For `CCCc1cc(N2CCN(c3ccccc3F)CC2)n2cnnc2n1`, the Potency was inconclusive [phenotype inactive, single point].
For `O=C(NCCc1ccc(Cl)cc1)c1ccc(Nc2nc3ccccc3n3nnnc23)cc1`, the Potency was inconclusive [phenotype inactive, partial curve, poor fit].
With `O=C(CCS(=O)(=O)c1ccc(Br)s1)Nc1cc(C(F)(F)F)cc(C(F)(F)F)c1` the Potency was active: 20 µM.
With `Cc1ccc2occ(CC(=O)N(Cc3ccc(Cl)cc3)Cc3ccco3)c2c1` the Potency was inconclusive [phenotype inactive, single point].
In the case of `COC(=O)c1c(-c2ccc(Cl)cc2)noc1N1CCN(c2ccccc2OC)CC1`, the Potency is reported as active: 8.91 µM.
For `CCOc1ccc(NC(=O)CSc2c3c(nc4ccccc24)CCCC3)cc1`, the Potency was inconclusive [phenotype inactive, partial curve, poor fit].
For `CCc1ccc(C(=O)CC2(O)C(=O)N(Cc3ccc(C)cc3)c3ccccc32)cc1` (stereo unspecified), the Potency was inconclusive [phenotype inactive, partial curve, poor fit].
With `Cc1cccc(CSc2ncc(Cl)c(C(=O)Nc3nnc(C)s3)n2)c1` the Potency was “inactive”.
With `CCOc1ccccc1NC(=O)CSc1nc2cc(OC)c(OC)cc2c2nc(CCn3c(C)nc4ccccc43)nn12` the Potency was inconclusive [phenotype inactive, partial curve, poor fit].
With `CCCOc1ccc(CNC(=O)CCCN2C(=O)CSc3c2c(C)nn3-c2ccccc2)cc1` the Potency was inconclusive [phenotype inactive, partial curve, poor fit].
For `O=C(NCc1ccc(Cl)cc1)C1CCN(C(=O)c2cnn(-c3ccccc3)c2-n2cccc2)CC1`, the Potency was inconclusive [phenotype inactive, single point].
With `Cc1cccc(-c2nnc(SCC(=O)Nc3ccc(C)c(C)c3)o2)c1` the Potency was “inactive”.
With `N#Cc1c(C(F)(F)F)cc(-c2cccs2)nc1SCC(=O)Nc1cccc(Br)c1` the Potency was “inactive”.
In the case of `O=S(=O)(NCCc1csc2nc(-c3ccc(F)cc3)nn12)c1ccc2c(c1)OCCO2`, the Potency is reported as inconclusive [phenotype inactive, single point].
For `Cc1ccc(CNC(=O)CCCn2c(=O)c3ccccc3n(Cc3ccccc3Cl)c2=O)cc1`, the Potency was inconclusive [phenotype inactive, single point].
For `CCOC(=O)c1c(C)oc2nc(C)nc(NCCCN3CCN(c4ccccc4OC)CC3)c12`, the Potency was inconclusive [phenotype inactive, partial curve].
With `CCOC(=O)c1c(C)[nH]c(C)c1S(=O)(=O)N(C)CC(=O)N1CCN(c2cccc(C)c2C)CC1` the Potency was inconclusive [phenotype inactive, single point].
In the case of `Cc1oc(-c2cccc(Cl)c2)nc1CN1CCC(C(=O)NCc2ccc(F)cc2)CC1`, the Potency is reported as inconclusive [phenotype inactive, single point].
In the case of `Cc1ccc(CSc2nc3cccnc3n2Cc2ccc(C(=O)NCc3cccs3)cc2)cc1`, the Potency is reported as “inactive”.
In the case of `CC(=O)c1ccc(NC(=O)CC2Sc3ccccc3NC2=O)cc1` (stereo unspecified), the Potency is reported as “inactive”.
In the case of `CCc1ccc(NCc2cc3cc(OC)c(OC)cc3n(CC(=O)Nc3ccc(F)cc3)c2=O)cc1`, the Potency is reported as inconclusive [phenotype inactive, partial curve].
With `COc1cccc(NC(=O)c2oc3ccccc3c2NC(=O)c2ccc(OC(C)C)cc2)c1` the Potency was “inactive”.
For `CCOc1ccc(NC(=O)Cn2c(=O)n(CC(=O)NCCc3ccccc3)c(=O)c3sccc32)cc1`, the Potency was inconclusive [phenotype inactive, partial curve, poor fit].
In the case of `COCC(C)NS(=O)(=O)c1ccc(N2CCCCS2(=O)=O)cc1` (stereo unspecified), the Potency is reported as “inactive”.
With `CC(CNC(=O)Cn1c(-c2cccs2)cc2cc(Cl)ccc21)c1ccccc1` (stereo unspecified) the Potency was inconclusive [phenotype inactive, single point].
In the case of `CC(C)CC(=O)Nc1cccc(-c2cn3cccnc3n2)c1`, the Potency is reported as “inactive”.
With `CCOc1ccc(NC(=O)c2cnn3c2NC(C)=C(C(=O)Nc2ccc(Cl)cc2)C3c2ccc(OC)c(OC)c2)cc1` (stereo unspecified) the Potency was inconclusive [phenotype inactive, single point].
In the case of `COc1ccc2nc(N3CCN(C(=O)CS(=O)(=O)c4ccc(C)cc4)CC3)sc2c1`, the Potency is reported as inconclusive [phenotype inactive, single point].
